Here are results for 45 compounds from publication PMC4336329 (PLoS ONE, 2015).

About 14,000 (4.5%) of roughly 310,000 compounds showed an effect of 50% or more. The effect is printed as a negative number. Some of the results follow.
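Note: peak tail current of the secondary pulse compared with the same well before compound.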

The target of this test is human ether-à-go-go-related gene (hERG) potassium channel (human, UniProt Q12809). Kind of test: primary screen, population patch clamp on CHO cells stably expressing hERG.
human ether-à-go-go-related gene (hERG) potassium channel, sequence (Q12809 whole entry, looked up): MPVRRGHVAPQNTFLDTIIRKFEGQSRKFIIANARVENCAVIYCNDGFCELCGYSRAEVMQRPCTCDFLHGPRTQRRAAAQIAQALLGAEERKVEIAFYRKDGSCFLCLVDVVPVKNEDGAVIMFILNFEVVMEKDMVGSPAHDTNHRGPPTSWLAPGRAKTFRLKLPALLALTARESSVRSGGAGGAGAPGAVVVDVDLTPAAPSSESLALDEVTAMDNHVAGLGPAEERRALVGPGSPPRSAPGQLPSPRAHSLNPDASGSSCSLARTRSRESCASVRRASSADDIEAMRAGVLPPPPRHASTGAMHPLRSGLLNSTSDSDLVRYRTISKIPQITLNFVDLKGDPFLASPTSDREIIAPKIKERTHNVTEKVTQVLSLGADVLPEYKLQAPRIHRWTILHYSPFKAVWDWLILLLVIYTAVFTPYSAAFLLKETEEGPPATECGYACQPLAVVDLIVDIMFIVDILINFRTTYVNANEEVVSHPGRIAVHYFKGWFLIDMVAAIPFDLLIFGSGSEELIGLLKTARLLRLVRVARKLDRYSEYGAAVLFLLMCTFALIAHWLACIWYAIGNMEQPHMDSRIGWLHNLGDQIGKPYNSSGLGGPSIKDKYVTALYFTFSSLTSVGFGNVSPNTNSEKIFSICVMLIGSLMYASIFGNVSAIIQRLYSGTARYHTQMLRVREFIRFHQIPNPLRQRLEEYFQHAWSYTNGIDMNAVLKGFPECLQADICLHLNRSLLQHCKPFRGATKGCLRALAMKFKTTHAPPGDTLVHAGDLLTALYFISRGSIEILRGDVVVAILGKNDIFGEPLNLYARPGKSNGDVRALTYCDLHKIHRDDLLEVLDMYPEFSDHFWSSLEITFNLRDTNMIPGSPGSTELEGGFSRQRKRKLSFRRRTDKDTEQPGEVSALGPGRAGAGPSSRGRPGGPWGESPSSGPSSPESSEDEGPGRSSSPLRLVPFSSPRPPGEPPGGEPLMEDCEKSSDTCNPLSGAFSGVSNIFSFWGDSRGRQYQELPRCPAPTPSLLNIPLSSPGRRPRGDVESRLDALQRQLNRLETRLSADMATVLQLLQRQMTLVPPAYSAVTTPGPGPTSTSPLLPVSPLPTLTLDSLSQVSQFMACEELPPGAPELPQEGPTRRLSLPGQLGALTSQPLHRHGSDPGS
In the case of `CCCS(=O)(=O)Nc1cccc(-c2cn3c(n2)SCC3)c1`, the “hERG current change (%, negative = inhibition) at 10uM” value is -14.1%.
The same measure for `COC(=O)C1=C(c2ccc(OC(F)(F)F)cc2)C[C@@H]2CC[C@H]1N2C(=O)NCCOc1ccc(OC)cc1`: -26.3%.
Consider `O=C(NCC(=O)N(c1cccnc1)C(C(=O)NC1CCCC1)c1ccccc1)c1ccco1` (stereo not drawn), for which the “hERG current change (%, negative = inhibition) at 10uM” value is 19.9%.
Regarding `CCC(=O)c1cccc2c1N=CC1=C(CC(C)(C)CC1=O)N2`, the “hERG current change (%, negative = inhibition) at 10uM” value is on record as 2.57%.
Regarding `Cc1cc(C)n(-c2cc(Cl)ccc2[N+](=O)[O-])n1`, the “hERG current change (%, negative = inhibition) at 10uM” value is 4.19%.
For `COc1ccc2c3c(cccc13)OCC2=O` the value was -3.92%.
The same measure for `CCOC(=O)[C@H]1[C@H]2COc3ccccc3[C@@H]2N2C(=O)c3cc(C)ccc3NC(=O)[C@@]12C`: -23.2%; for `CN(CC(=O)Nc1cccc(F)c1)C(=O)c1cc(-c2ccco2)nc2ccccc12`: -27.1%.
For `CC(C)(C)c1nnc(NC(=O)CCS(=O)(=O)c2ccccc2)s1` the value was 5.03%; for `CC(C)(C)CC(=O)Nc1cccc2c1CCCC2`, -7.97%; for `C=C(C)Cn1c(CCCNC(=O)CC)nc2ccccc21`, -6.64%.
With `O=C(/C=C/c1cccc([N+](=O)[O-])c1)NCc1ccc2c(c1)OCO2`, the “hERG current change (%, negative = inhibition) at 10uM” value is -43.7%.
For `COc1cccc(NC(=O)CCc2nnc3ccc(NCc4ccco4)nn23)c1`, the “hERG current change (%, negative = inhibition) at 10uM” value came to 4.38%.
In the case of `Cc1ccc(NC(=S)Nc2ccc(C(C)C)cc2)cc1S(=O)(=O)N1CCCCCC1`, the “hERG current change (%, negative = inhibition) at 10uM” value was 11.2%.
`COc1ccc2c(c1)CC/C(=C/c1ccncc1)C2=O`: the “hERG current change (%, negative = inhibition) at 10uM” value is recorded as -55.2%.
For `Cc1ccn2c(=O)nc(SCC(=O)c3ccc(Cl)cc3)nc2c1`, the “hERG current change (%, negative = inhibition) at 10uM” value is given as -31.2%.
For `COc1cccc(NC(=O)CN(C)C(=O)c2cn(-c3ccccc3)nc2-c2cccs2)c1`, the “hERG current change (%, negative = inhibition) at 10uM” value was -29.8%.
Turning to `CC(=O)c1ccc(N2CCN(C(=O)C3CCC3)CC2)cc1`, the “hERG current change (%, negative = inhibition) at 10uM” value was -26.4%.
`COC(=O)c1sccc1NC(=O)c1ccc(Br)o1`: the “hERG current change (%, negative = inhibition) at 10uM” value is reported as -3.08%.
`CCOC(=O)C1=C(O)/C(=C/c2cc(C)n(-c3ccccc3)c2C)N=C1C`: the “hERG current change (%, negative = inhibition) at 10uM” value is -22.8%.
In the case of `O=C(OC1CCOC1=O)c1cccc(S(=O)(=O)N2CCc3ccccc3C2)c1` (stereo not drawn), the “hERG current change (%, negative = inhibition) at 10uM” value is listed as -18.5%.
For `O=C(NCc1ccc2c(c1)OCO2)c1sccc1Br`, the “hERG current change (%, negative = inhibition) at 10uM” value stood at 8.28%.
For `Cc1ccc2cc(CCNC(=O)C3CCCCC3)c(=O)[nH]c2c1C`, the “hERG current change (%, negative = inhibition) at 10uM” value was -7.04%.
As to `Cc1ccc(-c2nnn(CC(=O)N(C)C3CCCCC3)n2)o1`, the “hERG current change (%, negative = inhibition) at 10uM” value stood at 2.45%.
Regarding `ClC(Br)=C(n1cnc2ccccc21)n1cnc2ccccc21`, the “hERG current change (%, negative = inhibition) at 10uM” value is listed as -22.5%.
For `COC(=O)c1[nH]c2cc(OC)ccc2c1NC(=O)CCN1CCCC(C)(C)C1`, the “hERG current change (%, negative = inhibition) at 10uM” value is -39.4%.
Consider `CSC1=NC(C)(C)C=C(/C=C/c2ccc(Cl)cc2)N1`, for which the “hERG current change (%, negative = inhibition) at 10uM” value is -15.7%.
Turning to `CCOc1ccc(CC(=O)N/N=C/c2cccnc2)cc1OCC`, the “hERG current change (%, negative = inhibition) at 10uM” value is 14%.
As to `N#Cc1c(SCC(=O)Nc2nncs2)sc2c(O)cc(=O)[nH]c12`, the “hERG current change (%, negative = inhibition) at 10uM” value was 10.5%.
As to `Cc1noc(C)c1C(=O)N(CC(=O)NC1CCCC1)Cc1ccccc1F`, the “hERG current change (%, negative = inhibition) at 10uM” value is reported as -5.09%.
On to `CCCCn1c(O)c(/C=C/C=Nc2ccccc2)c(=O)[nH]c1=O`, for which the “hERG current change (%, negative = inhibition) at 10uM” value was -15.4%.
As to `Cc1nc2ccccc2c(=O)n1NC(=O)/C=C/c1ccccc1Cl`, the “hERG current change (%, negative = inhibition) at 10uM” value worked out at 8.99%.
The same measure for `Nc1nc(SCc2ccc(Cl)cc2)ns1`: -7%; for `Cc1ccc(Oc2nc(-c3ccccc3)ncc2S(=O)(=O)c2ccc(C)cc2)cc1`: 20.1%.
With `COc1ccc(CNC(=O)C2CCN(S(=O)(=O)c3cccc4cccnc34)CC2)cc1`, the “hERG current change (%, negative = inhibition) at 10uM” value is given as -17.7%.
The same measure for `O=C(COC(=O)c1cccc(F)c1)Nc1cccnc1Cl`: 7.1%.
For `COc1cc(NC2c3ccccc3C(=O)N2Cc2ccc3c(c2)OCO3)cc(OC)c1` (stereo not drawn), the “hERG current change (%, negative = inhibition) at 10uM” value is -22.4%.
For `Cc1ccccc1Cn1nc(C)c(NC(=O)c2cc(-c3ccco3)on2)c1C` the value was -8.59%; for `O=C(NC1CC1)c1ccc(CSCc2ccccc2Cl)o1`, -8.27%; for `Cc1scc(C(=O)NNC(=S)NCC2CCCO2)c1-c1ccccc1` (stereo not drawn), 12.1%.
For the compound `CCn1c(CSCc2ccccc2)n[nH]c1=S`, the “hERG current change (%, negative = inhibition) at 10uM” value came out at 13.2%.
As to `O=C(COc1cccc2c1CCN(Cc1ccccc1)C2=O)N1CCCCC1`, the “hERG current change (%, negative = inhibition) at 10uM” value is reported as -15%.
For `CN1C(=O)C(Cc2ccc(OCc3ccccc3)cc2)C(=O)N(C)C1=O` the value was 15.6%; for `COc1nc(-c2ccccc2)ccc1-c1noc(-c2cccs2)n1`, -5.4%; for `COc1ccc([C@H]2/C=C\CN(C(=O)c3ccccc3)[C@@H](C)C(=O)N2Cc2ccc(F)cc2)cc1`, -43.4%.
